Test results published in article PMC9596381 (2022).

How the values were obtained:
Test in all cases: SPR, apparent 1:1 fit
[1] = molecular target: Unc5A (Mus musculus (Mouse), UniProt Q8K1S4)
[2] = molecular target: Unc5C (Mus musculus (Mouse), UniProt O08747)
[3] = molecular target: Unc5B (Mus musculus (Mouse), UniProt Q8K1S3)
[4] = molecular target: Unc5D (Rattus norvegicus (Rat), UniProt F1LW30)
Chain of UniProt F1LW30 (F1LW30 46-307): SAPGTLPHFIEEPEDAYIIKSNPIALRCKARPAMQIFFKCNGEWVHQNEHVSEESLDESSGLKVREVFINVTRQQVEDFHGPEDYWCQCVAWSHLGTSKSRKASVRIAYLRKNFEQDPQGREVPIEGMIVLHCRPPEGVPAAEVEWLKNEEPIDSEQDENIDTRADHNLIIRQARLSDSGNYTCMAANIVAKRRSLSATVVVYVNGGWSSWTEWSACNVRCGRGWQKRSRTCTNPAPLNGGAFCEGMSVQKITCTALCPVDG

Chain of UniProt Q8K1S3 (Q8K1S3 42-302): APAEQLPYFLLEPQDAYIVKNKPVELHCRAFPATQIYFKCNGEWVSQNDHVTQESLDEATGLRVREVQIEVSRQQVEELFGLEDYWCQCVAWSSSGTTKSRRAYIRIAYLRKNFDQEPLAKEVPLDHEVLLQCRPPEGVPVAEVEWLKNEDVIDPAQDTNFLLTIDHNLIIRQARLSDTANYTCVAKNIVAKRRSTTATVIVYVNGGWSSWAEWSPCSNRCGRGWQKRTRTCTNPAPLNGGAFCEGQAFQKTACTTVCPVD
Chain of UniProt O08747 (O08747 56-316): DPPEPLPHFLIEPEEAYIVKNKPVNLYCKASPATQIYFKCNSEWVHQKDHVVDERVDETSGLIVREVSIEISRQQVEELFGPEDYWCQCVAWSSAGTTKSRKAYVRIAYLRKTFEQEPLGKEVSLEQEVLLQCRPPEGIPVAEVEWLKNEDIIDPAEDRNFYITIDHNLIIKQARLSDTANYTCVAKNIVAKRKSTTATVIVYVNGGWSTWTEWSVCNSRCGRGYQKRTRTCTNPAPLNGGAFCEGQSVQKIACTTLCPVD
Chain of UniProt Q8K1S4 (Q8K1S4 38-298): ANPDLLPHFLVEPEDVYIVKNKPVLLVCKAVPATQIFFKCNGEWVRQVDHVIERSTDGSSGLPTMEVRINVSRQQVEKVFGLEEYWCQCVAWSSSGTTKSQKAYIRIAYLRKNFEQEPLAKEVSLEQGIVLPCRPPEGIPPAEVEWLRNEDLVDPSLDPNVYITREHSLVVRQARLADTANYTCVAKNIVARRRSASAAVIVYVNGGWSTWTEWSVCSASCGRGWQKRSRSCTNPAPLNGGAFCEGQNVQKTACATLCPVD

Kd [1]: 890 nM | Kd [2]: 980 nM | Kd [3]: 370 nM | Kd [4]: 370 nM
B1: GPC3 (protein)
chain: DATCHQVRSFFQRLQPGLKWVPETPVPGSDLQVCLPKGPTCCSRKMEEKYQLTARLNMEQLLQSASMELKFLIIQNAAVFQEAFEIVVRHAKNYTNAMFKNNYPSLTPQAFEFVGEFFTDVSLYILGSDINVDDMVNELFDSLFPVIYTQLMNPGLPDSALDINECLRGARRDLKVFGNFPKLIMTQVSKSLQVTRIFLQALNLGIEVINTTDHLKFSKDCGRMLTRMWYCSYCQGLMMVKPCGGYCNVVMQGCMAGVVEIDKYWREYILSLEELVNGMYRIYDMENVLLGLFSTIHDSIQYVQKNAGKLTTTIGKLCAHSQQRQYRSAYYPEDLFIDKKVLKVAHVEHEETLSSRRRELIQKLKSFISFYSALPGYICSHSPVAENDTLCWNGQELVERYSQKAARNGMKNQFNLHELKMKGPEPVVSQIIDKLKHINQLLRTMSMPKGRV
